Data on eleven variants can be found in the supplement of paper PMC12217912.

B1: TEV protease; numbered along this chain (parent)
chain: MGESLFKGPRDYNPISSSICHLTNESDGHTTSLYGIGFGPFIITNKHLFRRNNGTLVVQSLHGVFKVKDTTTLQQHLVDGRDMIIIRMPKDFPPFPQKLKFREPQREERICLVTTNFQTKSMSSMVSDTSCTFPSGDGIFWKHWIQTKDGQCGSPLVSTRDGFIVGIHSASNFTNTNNYFTSVPKNFMELLTNQEAQQWVSGWRLNADSVLWGGHKVFMVKPEEPFQPVKEATQL

The variants in this experiment derive from B1. Briefly: raw area under fraction-flipped curve 0-4 h after induction (AUC4h, not background-subtracted), DNA-recorder readout of cleavage of the substrate (dimensionless); higher = more cleavage of the substrate by the protease variant. Particulars: temperature: 34 °C; time window: 0-4 h after rhamnose induction. As to the method:
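In vivo DNA recorder in E. coli TOP10(DE3) ΔrhaA at 34 °C. Each TEVp single-site mutant (parent TEVp 0) is paired with a single-site variant of the 7-mer TEVs (canonical ENLYFQ|S). The substrate sits between flexible linkers in a Bxb1-sfGFP-TEVs-SsrA fusion, so cleavage stabilises Bxb1 and speeds flipping of a recombination array, read by NGS. The value is the raw area under the fraction-flipped curve over 0-4 h after rhamnose induction (AUC4h), with ≥20 reads per time point. It is not background-subtracted; inactive controls average about 0.047.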

The list shows a part of the results. The full chains were built here from the parent and the listed change. Values near 0.05 are background.
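Note: Bxb1 expression induced with 0.2% (w/v) L-rhamnose at OD600 near 0.5, cultures sampled hourly, flipped fraction per protease–substrate barcode pair counted by paired-end Illumina sequencing.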

In the case of MGESLFKGPRDYNPISSSICHLTNESHGHTTSLYGIGFGPFIITNKHLFRRNNGTLVVQSLHGVFKVKDTTTLQQHLVDGRDMIIIRMPKDFPPFPQKLKFREPQREERICLVTTNFQTKSMSSMVSDTSCTFPSGDGIFWKHWIQTKDGQCGSPLVSTRDGFIVGIHSASNFTNTNNYFTSVPKNFMELLTNQEAQQWVSGWRLNADSVLWGGHKVFMVKPEEPFQPVKEATQL [D27H], the “area with substrate FNLYFQS” value turned out to be 0.0407, the “area with substrate HNLYFQS” value worked out at 0.0705, the “area with substrate LNLYFQS” value worked out at 0.0735 and the “area with substrate NNLYFQS” value is 0.0608. For the same variant, the “area with substrate PNLYFQS” value was determined as 0.0758 and the “area with substrate YNLYFQS” value is 0.0592.
Turning to MGESLFKGPRDYNPISSSICHLTNESDGHTTSLYGIGFGPFIITNKHLFRRNNGTLVVQSLHGVFKVKDTTTLQQHLVDGRDMIIIRMPKDFPPFPQKLKFREPQREERICLVTTNFQTKSMSSMVSDTSCTFPSGDGIFWKHWIQTKDGQCGSPLVSTRDGFIVGIHSASNFTNTNNYFTSVPKNFMELLTNQEAQQWVSGWRLNADSVLWGGHKVFMVKPEEPFQPVKEAVQL [T233V], the “area with substrate DNLYFQS” value came out at 0.0704, the “area with substrate KNLYFQS” value turned out to be 0.0553, the “area with substrate LNLYFQS” value was 0.072 and the “area with substrate QNLYFQS” value turned out to be 0.0693. Besides, the “area with substrate VNLYFQS” value was 0.0613 and the “area with substrate YNLYFQS” value worked out at 0.0738.
MGESLFKGPRDYNPISSSICHLTNESDGHTTSLYGIGFGPFIITNKHLFRRNNGTLVVQSLHGVFKVKDTTTLQQHLVDGRDMIIIRMPKDFPPFPQKLKFREPQREERICLVTTNFQTKSMSSMVSDTSCTFPSGDGIFWKHWIQTKDGQCGSPLVSTRDGFIVGIHSASNFTNTNNYFTSVPKNFMELLTNQEAQQWVSGWRLNADSVLWGGHKVFMVKPEEPFQPVKEAIQL [T233I]: the “area with substrate DNLYFQS” value is 0.0797, the “area with substrate FNLYFQS” value was determined as 0.043, the “area with substrate HNLYFQS” value was 0.0783 and the “area with substrate LNLYFQS” value stood at 0.075. Further, the “area with substrate MNLYFQS” value came to 0.0699, the “area with substrate NNLYFQS” value is 0.0555, the “area with substrate PNLYFQS” value came to 0.0683 and the “area with substrate TNLYFQS” value turned out to be 0.0581. Besides, the “area with substrate YNLYFQS” value came out at 0.0529.
In the case of MGESLFKGPRDYNPISSSICHLTNESDGHTTSLYGIGFGPFIITNKHLFRRNNGTLVYQSLHGVFKVKDTTTLQQHLVDGRDMIIIRMPKDFPPFPQKLKFREPQREERICLVTTNFQTKSMSSMVSDTSCTFPSGDGIFWKHWIQTKDGQCGSPLVSTRDGFIVGIHSASNFTNTNNYFTSVPKNFMELLTNQEAQQWVSGWRLNADSVLWGGHKVFMVKPEEPFQPVKEATQL [V58Y], the “area with substrate FNLYFQS” value came out at 0.0437, the “area with substrate GNLYFQS” value was 0.0388, the “area with substrate HNLYFQS” value came to 0.0545 and the “area with substrate LNLYFQS” value is 0.0486. Besides, the “area with substrate MNLYFQS” value worked out at 0.057, the “area with substrate PNLYFQS” value amounted to 0.052, the “area with substrate RNLYFQS” value was determined as 0.0544 and the “area with substrate SNLYFQS” value turned out to be 0.0437. The “area with substrate TNLYFQS” value stood at 0.028, the “area with substrate VNLYFQS” value turned out to be 0.059, the “area with substrate WNLYFQS” value was 0.0406 and the “area with substrate YNLYFQS” value was 0.0681.
On to MGESLFKGPRDYNPISSSICHLTNESDGHTTSLYGIGFGPFIITNKHLFRRNHGTLVVQSLHGVFKVKDTTTLQQHLVDGRDMIIIRMPKDFPPFPQKLKFREPQREERICLVTTNFQTKSMSSMVSDTSCTFPSGDGIFWKHWIQTKDGQCGSPLVSTRDGFIVGIHSASNFTNTNNYFTSVPKNFMELLTNQEAQQWVSGWRLNADSVLWGGHKVFMVKPEEPFQPVKEATQL [N53H], for which the “area with substrate FNLYFQS” value turned out to be 0.0675, the “area with substrate HNLYFQS” value was determined as 0.0568, the “area with substrate INLYFQS” value came out at 0.064 and the “area with substrate KNLYFQS” value came out at 0.0684. Further, the “area with substrate LNLYFQS” value turned out to be 0.0714, the “area with substrate NNLYFQS” value is 0.0479, the “area with substrate PNLYFQS” value turned out to be 0.0667 and the “area with substrate SNLYFQS” value was 0.0664. For the same variant, the “area with substrate TNLYFQS” value was 0.0538, the “area with substrate WNLYFQS” value was 0.0685 and the “area with substrate YNLYFQS” value worked out at 0.0727.
As for MGESLFKGPRDYNPISSSICHLTNESDGHTTSLYGIGFGPFIITNKHLFRRNNGTNVVQSLHGVFKVKDTTTLQQHLVDGRDMIIIRMPKDFPPFPQKLKFREPQREERICLVTTNFQTKSMSSMVSDTSCTFPSGDGIFWKHWIQTKDGQCGSPLVSTRDGFIVGIHSASNFTNTNNYFTSVPKNFMELLTNQEAQQWVSGWRLNADSVLWGGHKVFMVKPEEPFQPVKEATQL [L56N], the “area with substrate FNLYFQS” value was found to be 0.0391, the “area with substrate HNLYFQS” value was determined as 0.0521, the “area with substrate INLYFQS” value came to 0.0485 and the “area with substrate KNLYFQS” value amounted to 0.0367. Further, the “area with substrate NNLYFQS” value came to 0.0673, the “area with substrate TNLYFQS” value came out at 0.0557 and the “area with substrate WNLYFQS” value was 0.0514.
As for MGESLFMGPRDYNPISSSICHLTNESDGHTTSLYGIGFGPFIITNKHLFRRNNGTLVVQSLHGVFKVKDTTTLQQHLVDGRDMIIIRMPKDFPPFPQKLKFREPQREERICLVTTNFQTKSMSSMVSDTSCTFPSGDGIFWKHWIQTKDGQCGSPLVSTRDGFIVGIHSASNFTNTNNYFTSVPKNFMELLTNQEAQQWVSGWRLNADSVLWGGHKVFMVKPEEPFQPVKEATQL [K7M], the “area with substrate FNLYFQS” value is 0.0611, the “area with substrate HNLYFQS” value was 0.0582, the “area with substrate KNLYFQS” value came to 0.0648 and the “area with substrate NNLYFQS” value was 0.0671. Further, the “area with substrate PNLYFQS” value is 0.0484, the “area with substrate SNLYFQS” value was found to be 0.069, the “area with substrate TNLYFQS” value turned out to be 0.0735 and the “area with substrate YNLYFQS” value stood at 0.0627.
Regarding MGESLFKGPRDYNPISSSICHLTNESDGHTTSLYGIGFGPFIITNKHLFRRNNGTLVVQSLHGVFKVKDTTTLQQHLVDGRDMIIIRMPKDFPPFPQKLKFREPQREERICLVTTNFQTKSMSSMVSDTSCTFPSGDGIFWKHWIQTKDGQCGSPLVSTRDGFIVGIHSASNFTNTNNYFTSVPKNFMELLTNQEAQQWVSGWRLNADSVLWGGHKVFMVKPEEPFQPVKEATQV [L235V], the “area with substrate DNLYFQS” value is 0.0911, the “area with substrate GNLYFQS” value is 0.0478, the “area with substrate INLYFQS” value worked out at 0.0646 and the “area with substrate MNLYFQS” value is 0.0844. Besides, the “area with substrate NNLYFQS” value was 0.0584, the “area with substrate PNLYFQS” value worked out at 0.0578, the “area with substrate SNLYFQS” value stood at 0.0715 and the “area with substrate TNLYFQS” value was 0.0618. Further, the “area with substrate WNLYFQS” value is 0.0616.
As to MGESLFKGPRDYNPISSSICHLTNESDGHTTSLYGIGFGPFIITNKHLFRRNNGTLVVQSLHGVFKVKDTTTLQQHLVDGRDMIIIRMPKDFPPFPQKLKFREPQREERICLVTTNFQTKSMSSMVSDTSCTFPSGDGIFWKHWIQTKDGQCGSPLVSTRDGFIVGIHSASNFTNTNNYFTSVPKNFMELLTNQEAQQWVSGWRLNADSVLWGGHKVFMVKPEEPFQPVKEATQR [L235R], the “area with substrate DNLYFQS” value worked out at 0.086, the “area with substrate KNLYFQS” value was 0.0475 and the “area with substrate SNLYFQS” value is 0.05.
Take MGESLFKGPRDYNPISSSICHLTNESDGHTTSLYGIGFGPFIITNKHLFRRNNGTLVVQSLHGVFKVKDTTTLQQHLVDGRDMIIIRMPKDFPPFPQKLKFREPQREERICLVTTNFQTKSMSSMVSDTSCTFPSGDGIFWKHWIQTKDGQCGSPLVSTRDGFIVGIHSASNFTNTNNYFTSVPKNFMELLTNQEAQQWVSGWRLNADSVLWGGHKVFMVKPEEPFQPVKEATQD [L235D]: the “area with substrate DNLYFQS” value stood at 0.0899, the “area with substrate FNLYFQS” value amounted to 0.0541, the “area with substrate INLYFQS” value worked out at 0.0245 and the “area with substrate PNLYFQS” value came to 0.068. In addition, the “area with substrate RNLYFQS” value was 0.0622 and the “area with substrate TNLYFQS” value was 0.095.
With MGESLFKGPRDYNPISSSICHLTNESDGHTTSLYGIGFGPFIITNKHLFRRNNGTLVVQSLHGVFKVKDTTTLQQHLVDGRDMIIIRMPKDFPPFPQKLKFREPQREERICLVTTNFQTKSMSSMVSDTSCTFPSGDGIFWKHWIQTKDGQCGSPLVSTRDGFIVGIHSASNFTNTNNYFTSVPKNFMELLTNQEAQQWVSGWRLNADSVLWGGHKVFMVKPEEPFQPVKYATQL [E231Y], the “area with substrate DNLYFQS” value came out at 0.0756, the “area with substrate KNLYFQS” value worked out at 0.0518, the “area with substrate LNLYFQS” value is 0.06 and the “area with substrate MNLYFQS” value was 0.0565. Moreover, the “area with substrate RNLYFQS” value amounted to 0.0716, the “area with substrate SNLYFQS” value amounted to 0.0643, the “area with substrate TNLYFQS” value was found to be 0.0353 and the “area with substrate VNLYFQS” value worked out at 0.0605. Also, the “area with substrate WNLYFQS” value worked out at 0.121.
